Where a chain is given by its changes, count along the chain named. Results are given in words; binding and its absence hold for the method and conditions named. In cells and extracts the contact can be indirect. Some entries that bind do so weakly or less than the wild type. For part of these data: Tags and fused reporters may be left off the sequences shown.
Assays:
GFP-WIPI4 (human) [1] = target: T1, GFP-WIPI4 (human) (UniProt Q9Y484); assay: co-IP; U2OS expressing myc-ATG2A and GFP, GFP-WIPI4 WT or GFP-WIPI4 mutants; anti-GFP immunoprecipitation, anti-myc immunoblotting
T1 sequence: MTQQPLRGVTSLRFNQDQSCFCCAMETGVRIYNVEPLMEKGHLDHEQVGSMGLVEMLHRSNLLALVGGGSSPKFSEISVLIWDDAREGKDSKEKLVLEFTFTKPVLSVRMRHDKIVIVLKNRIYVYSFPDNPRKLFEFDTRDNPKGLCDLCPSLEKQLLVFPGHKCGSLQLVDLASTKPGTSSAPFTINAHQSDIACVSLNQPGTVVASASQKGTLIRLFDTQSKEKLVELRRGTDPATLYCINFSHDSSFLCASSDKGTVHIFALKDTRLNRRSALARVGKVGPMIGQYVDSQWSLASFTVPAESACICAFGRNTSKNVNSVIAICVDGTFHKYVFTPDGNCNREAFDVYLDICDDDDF

Amino acid sequences for entries named in this document (tags omitted).
UniProt Q5MNZ6: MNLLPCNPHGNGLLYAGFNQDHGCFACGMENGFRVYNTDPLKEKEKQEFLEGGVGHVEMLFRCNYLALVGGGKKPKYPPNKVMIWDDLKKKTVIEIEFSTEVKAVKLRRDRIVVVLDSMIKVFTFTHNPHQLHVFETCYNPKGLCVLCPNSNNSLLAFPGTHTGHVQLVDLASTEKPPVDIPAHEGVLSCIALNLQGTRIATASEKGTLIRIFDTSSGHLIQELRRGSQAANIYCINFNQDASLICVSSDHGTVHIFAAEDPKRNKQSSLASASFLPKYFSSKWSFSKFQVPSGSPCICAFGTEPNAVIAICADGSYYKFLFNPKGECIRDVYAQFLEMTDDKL
UniProt Q2TAZ0: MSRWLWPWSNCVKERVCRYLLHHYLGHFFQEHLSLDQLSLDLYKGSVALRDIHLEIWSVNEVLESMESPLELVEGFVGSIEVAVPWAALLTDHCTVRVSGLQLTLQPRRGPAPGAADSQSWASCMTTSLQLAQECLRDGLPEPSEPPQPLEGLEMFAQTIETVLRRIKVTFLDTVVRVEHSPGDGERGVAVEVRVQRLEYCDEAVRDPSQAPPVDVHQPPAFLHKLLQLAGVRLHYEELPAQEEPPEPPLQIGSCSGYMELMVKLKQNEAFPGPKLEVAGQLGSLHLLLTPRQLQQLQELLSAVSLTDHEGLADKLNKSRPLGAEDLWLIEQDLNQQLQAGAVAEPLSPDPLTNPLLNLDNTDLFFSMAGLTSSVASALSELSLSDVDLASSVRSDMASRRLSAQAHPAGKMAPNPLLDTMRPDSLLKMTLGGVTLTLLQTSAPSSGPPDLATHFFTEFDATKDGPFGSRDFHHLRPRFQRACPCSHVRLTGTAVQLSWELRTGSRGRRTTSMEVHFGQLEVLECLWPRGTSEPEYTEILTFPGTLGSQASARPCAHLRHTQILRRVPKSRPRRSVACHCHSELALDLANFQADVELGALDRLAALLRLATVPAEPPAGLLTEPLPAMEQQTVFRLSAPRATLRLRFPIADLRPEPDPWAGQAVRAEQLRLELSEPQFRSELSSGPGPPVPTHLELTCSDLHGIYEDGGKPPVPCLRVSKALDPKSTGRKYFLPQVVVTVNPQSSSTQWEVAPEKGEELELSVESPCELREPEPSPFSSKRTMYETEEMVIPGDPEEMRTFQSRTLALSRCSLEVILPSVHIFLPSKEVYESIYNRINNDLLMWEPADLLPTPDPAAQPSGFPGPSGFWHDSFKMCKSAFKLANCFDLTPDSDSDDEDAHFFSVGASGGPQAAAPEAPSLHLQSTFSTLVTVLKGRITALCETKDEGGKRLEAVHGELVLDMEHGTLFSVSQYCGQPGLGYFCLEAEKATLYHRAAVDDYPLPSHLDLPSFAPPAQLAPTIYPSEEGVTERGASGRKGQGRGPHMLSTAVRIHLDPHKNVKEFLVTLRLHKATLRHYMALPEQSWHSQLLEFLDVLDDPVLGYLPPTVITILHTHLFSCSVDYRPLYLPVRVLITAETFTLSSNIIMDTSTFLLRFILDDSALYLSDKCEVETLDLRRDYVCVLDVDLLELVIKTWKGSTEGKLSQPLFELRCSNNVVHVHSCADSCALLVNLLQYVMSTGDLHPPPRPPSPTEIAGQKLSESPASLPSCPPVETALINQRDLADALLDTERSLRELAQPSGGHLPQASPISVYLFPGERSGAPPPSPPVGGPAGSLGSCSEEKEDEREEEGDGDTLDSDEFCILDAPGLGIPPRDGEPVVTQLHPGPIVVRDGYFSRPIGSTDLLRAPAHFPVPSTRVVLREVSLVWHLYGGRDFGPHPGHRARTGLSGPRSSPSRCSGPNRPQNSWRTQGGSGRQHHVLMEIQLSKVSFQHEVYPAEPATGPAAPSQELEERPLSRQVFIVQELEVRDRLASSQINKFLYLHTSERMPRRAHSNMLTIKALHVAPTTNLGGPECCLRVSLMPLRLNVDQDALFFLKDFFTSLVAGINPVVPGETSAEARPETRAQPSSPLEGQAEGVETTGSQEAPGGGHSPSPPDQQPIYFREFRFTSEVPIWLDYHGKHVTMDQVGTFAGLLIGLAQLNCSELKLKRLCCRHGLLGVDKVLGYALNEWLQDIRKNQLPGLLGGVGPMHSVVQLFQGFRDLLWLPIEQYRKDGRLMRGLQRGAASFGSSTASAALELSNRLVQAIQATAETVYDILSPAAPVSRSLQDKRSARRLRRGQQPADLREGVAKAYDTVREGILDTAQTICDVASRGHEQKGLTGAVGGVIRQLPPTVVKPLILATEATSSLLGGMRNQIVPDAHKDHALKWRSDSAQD
UniProt P54619: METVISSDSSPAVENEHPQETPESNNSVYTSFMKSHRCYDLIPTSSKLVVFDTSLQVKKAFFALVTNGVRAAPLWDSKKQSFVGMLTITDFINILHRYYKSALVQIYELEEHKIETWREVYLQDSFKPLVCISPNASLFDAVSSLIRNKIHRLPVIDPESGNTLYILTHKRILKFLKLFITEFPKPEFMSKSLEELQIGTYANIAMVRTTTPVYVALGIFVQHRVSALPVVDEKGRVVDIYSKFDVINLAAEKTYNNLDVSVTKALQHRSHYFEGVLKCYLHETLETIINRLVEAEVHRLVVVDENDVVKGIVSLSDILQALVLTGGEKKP
UniProt Q9Y266: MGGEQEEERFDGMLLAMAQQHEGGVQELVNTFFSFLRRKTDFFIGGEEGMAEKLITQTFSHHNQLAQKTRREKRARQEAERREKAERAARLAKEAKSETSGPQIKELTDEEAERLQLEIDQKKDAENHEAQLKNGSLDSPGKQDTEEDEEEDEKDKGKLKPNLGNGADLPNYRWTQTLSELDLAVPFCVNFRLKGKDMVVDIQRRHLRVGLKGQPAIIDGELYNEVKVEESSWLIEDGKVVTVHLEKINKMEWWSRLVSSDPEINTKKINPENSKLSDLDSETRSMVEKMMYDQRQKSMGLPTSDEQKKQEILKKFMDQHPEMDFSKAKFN
UniProt Q9ESK9: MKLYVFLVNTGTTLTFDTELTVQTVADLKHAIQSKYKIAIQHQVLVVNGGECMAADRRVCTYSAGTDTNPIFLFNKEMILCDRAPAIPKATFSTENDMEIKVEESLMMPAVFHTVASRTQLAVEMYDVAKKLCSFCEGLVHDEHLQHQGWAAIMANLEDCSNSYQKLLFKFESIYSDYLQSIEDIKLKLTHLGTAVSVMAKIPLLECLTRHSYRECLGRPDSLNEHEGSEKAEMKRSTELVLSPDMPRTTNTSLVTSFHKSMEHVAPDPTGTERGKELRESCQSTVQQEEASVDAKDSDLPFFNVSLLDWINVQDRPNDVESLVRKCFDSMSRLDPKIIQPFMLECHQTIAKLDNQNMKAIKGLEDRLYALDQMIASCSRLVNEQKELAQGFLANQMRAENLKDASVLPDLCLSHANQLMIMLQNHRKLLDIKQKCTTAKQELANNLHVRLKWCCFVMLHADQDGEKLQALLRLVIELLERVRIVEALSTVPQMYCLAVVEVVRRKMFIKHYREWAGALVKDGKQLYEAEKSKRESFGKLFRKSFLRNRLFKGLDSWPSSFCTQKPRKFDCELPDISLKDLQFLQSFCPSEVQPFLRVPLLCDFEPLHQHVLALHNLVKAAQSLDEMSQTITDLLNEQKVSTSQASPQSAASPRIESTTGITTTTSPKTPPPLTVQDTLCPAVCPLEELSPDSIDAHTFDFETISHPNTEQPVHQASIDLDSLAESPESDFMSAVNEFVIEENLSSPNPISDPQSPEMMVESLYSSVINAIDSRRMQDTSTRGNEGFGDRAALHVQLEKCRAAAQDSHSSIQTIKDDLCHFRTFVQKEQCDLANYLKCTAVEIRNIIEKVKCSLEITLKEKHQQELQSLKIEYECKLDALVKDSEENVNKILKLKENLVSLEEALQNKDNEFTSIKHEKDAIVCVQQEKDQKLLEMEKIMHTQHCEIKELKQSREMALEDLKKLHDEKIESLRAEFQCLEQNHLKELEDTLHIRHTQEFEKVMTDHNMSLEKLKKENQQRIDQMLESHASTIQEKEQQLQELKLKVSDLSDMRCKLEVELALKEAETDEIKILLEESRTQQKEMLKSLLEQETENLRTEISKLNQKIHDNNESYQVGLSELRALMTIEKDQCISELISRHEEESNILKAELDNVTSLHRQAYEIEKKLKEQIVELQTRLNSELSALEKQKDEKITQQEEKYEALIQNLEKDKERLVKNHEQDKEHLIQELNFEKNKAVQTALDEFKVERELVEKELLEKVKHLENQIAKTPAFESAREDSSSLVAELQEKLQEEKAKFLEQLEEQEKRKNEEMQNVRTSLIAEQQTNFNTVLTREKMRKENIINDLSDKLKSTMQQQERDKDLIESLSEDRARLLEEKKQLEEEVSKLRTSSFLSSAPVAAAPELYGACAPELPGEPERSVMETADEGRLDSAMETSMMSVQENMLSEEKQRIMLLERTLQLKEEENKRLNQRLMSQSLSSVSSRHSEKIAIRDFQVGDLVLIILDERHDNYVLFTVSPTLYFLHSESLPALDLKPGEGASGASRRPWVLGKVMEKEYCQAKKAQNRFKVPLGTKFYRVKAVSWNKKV

[2] = target: T2, GFP-WIPI4-R232A/R233A (human) (UniProt Q9Y484); assay: as above
T2 sequence: T1 sequence with R232A, R233A

GFP-WIPI4 (human) [3] = target: T1, GFP-WIPI4 (human); assay: co-IP; stable GFP-WIPI4 or GFP U2OS cells expressing myc-ATG2A; fed, starved 3 h, starved with AICAR, without glucose or without glucose/glutamine; anti-GFP immunoprecipitation, anti-myc, anti-AMPKα, anti-Ulk1 immunoblotting
GFP-WIPI4 (human) [4] = target: T1, GFP-WIPI4 (human); assay: co-IP; U2OS expressing GFP or GFP-WIPI4 with myc-tagged AMPKα1, α2, β1 or γ1, fed conditions; anti-GFP immunoprecipitation, anti-myc immunoblotting
GFP-WIPI2B (human) = target: T3, GFP-WIPI2B (human) (UniProt Q9Y4P8); assay: co-IP; co-immunoprecipitation of endogenous NudC with WIPI proteins (Supplementary Fig. 4)
T3 sequence: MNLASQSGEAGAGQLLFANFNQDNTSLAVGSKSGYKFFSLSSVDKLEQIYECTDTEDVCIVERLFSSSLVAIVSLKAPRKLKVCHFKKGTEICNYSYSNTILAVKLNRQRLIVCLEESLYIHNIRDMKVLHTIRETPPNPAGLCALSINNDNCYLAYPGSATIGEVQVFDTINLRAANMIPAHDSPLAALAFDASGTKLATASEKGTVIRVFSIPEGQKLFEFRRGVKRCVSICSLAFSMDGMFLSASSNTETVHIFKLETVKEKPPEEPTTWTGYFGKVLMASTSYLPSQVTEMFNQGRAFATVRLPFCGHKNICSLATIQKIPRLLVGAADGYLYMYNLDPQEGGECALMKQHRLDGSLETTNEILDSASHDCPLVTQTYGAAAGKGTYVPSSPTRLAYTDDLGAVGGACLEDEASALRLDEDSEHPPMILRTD

GFP-WIPI4 (human) [5] = target: T1, GFP-WIPI4 (human); assay: as above
GFP-WIPI1 (human) = target: T4, GFP-WIPI1 (human) (UniProt Q5MNZ9); assay: as above
T4 sequence: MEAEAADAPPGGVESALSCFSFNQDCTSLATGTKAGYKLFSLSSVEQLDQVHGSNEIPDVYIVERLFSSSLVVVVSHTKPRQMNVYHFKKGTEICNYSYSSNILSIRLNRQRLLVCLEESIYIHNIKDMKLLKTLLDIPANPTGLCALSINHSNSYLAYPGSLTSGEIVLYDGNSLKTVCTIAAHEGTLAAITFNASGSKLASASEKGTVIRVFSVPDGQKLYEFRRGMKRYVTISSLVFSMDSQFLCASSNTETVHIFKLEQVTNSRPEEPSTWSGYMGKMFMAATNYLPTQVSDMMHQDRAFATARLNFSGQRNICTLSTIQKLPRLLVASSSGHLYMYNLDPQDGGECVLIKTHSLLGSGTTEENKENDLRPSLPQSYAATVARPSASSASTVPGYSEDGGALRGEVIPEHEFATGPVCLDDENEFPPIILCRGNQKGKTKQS

GFP-WIPI3 (human) [6] = target: GFP-WIPI3 (human) (UniProt Q5MNZ6); assay: as above
GFP-WIPI2D (human) = target: T5, GFP-WIPI2D (human) (UniProt Q9Y4P8); assay: as above
T5 sequence: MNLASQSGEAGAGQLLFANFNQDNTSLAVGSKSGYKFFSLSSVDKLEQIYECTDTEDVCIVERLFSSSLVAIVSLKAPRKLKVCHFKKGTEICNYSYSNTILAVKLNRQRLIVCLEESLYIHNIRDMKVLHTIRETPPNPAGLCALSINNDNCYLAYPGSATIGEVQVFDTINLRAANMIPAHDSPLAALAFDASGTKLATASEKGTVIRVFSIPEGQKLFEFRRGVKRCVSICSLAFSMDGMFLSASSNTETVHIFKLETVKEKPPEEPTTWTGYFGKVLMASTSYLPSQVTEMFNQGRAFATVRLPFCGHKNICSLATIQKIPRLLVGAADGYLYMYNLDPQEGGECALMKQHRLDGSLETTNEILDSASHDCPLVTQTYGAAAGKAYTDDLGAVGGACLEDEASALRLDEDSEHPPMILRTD

[7] = target: GFP-WIPI3 expressed in mouse embryonic fibroblasts (human) (UniProt Q5MNZ6); assay: co-IP; MEFs transiently expressing GFP-WIPI3 or GFP, fed or starved 3 h; anti-GFP immunoprecipitation, anti-FIP200 immunoblotting
GFP-WIPI3 (human) [8] = target: GFP-WIPI3 (human) (UniProt Q5MNZ6); assay: co-IP; stable GFP-WIPI U2OS cells; fed, starved (15 min to 3 h) or starved with LY294002; anti-GFP immunoprecipitation, anti-TSC2, anti-phospho-TSC2 (S1387), anti-TSC1 immunoblotting
myc-ATG2A = myc-ATG2A (UniProt Q2TAZ0); assay: co-IP; U2OS transiently expressing GFP-tagged WIPI proteins and myc-ATG2A, starved; anti-myc immunoprecipitation, anti-GFP immunoblotting

Question: For myc-ATG2A (from UniProt Q2TAZ0 1-1938), which binding (GFP-WIPI4 (human) [1]) is on record?
Answer: binds

Question: And the binding [2]?
Answer: binds

Question: And the binding (GFP-WIPI4 (human) [3])?
Answer: binds

Question: Myc-AMPKγ1 (from UniProt P54619 1-331) was tested. Which binding (GFP-WIPI4 (human) [4]) did it give?
Answer: binds

Question: How did the binding (GFP-WIPI2B (human)) turn out when “endogenous NudC (from UniProt Q9Y266 1-331)” was run?
Answer: binds

Question: What about the binding (GFP-WIPI4 (human) [5]) of the same molecule?
Answer: binds

Question: And the binding (GFP-WIPI1 (human))?
Answer: binds

Question: What about the binding (GFP-WIPI3 (human) [6]) of the same molecule?
Answer: no binding

Question: What about the binding (GFP-WIPI2D (human)) of the same molecule?
Answer: binds

Question: Which binding [7] does the source give for “endogenous FIP200 (MEFs) (from UniProt Q9ESK9 1-1588)” here?
Answer: binds

B1: endogenous TSC1 (protein, UniProt Q92574 1-1164)
chain: MAQQANVGELLAMLDSPMLGVRDDVTAVFKENLNSDRGPMLVNTLVDYYLETSSQPALHILTTLQEPHDKHLLDRINEYVGKAATRLSILSLLGHVIRLQPSWKHKLSQAPLLPSLLKCLKMDTDVVVLTTGVLVLITMLPMIPQSGKQHLLDFFDIFGRLSSWCLKKPGHVAEVYLVHLHASVYALFHRLYGMYPCNFVSFLRSHYSMKENLETFEEVVKPMMEHVRIHPELVTGSKDHELDPRRWKRLETHDVVIECAKISLDPTEASYEDGYSVSHQISARFPHRSADVTTSPYADTQNSYGCATSTPYSTSRLMLLNMPGQLPQTLSSPSTRLITEPPQATLWSPSMVCGMTTPPTSPGNVPPDLSHPYSKVFGTTAGGKGTPLGTPATSPPPAPLCHSDDYVHISLPQATVTPPRKEERMDSARPCLHRQHHLLNDRGSEEPPGSKGSVTLSDLPGFLGDLASEEDSIEKDKEEAAISRELSEITTAEAEPVVPRGGFDSPFYRDSLPGSQRKTHSAASSSQGASVNPEPLHSSLDKLGPDTPKQAFTPIDLPCGSADESPAGDRECQTSLETSIFTPSPCKIPPPTRVGFGSGQPPPYDHLFEVALPKTAHHFVIRKTEELLKKAKGNTEEDGVPSTSPMEVLDRLIQQGADAHSKELNKLPLPSKSVDWTHFGGSPPSDEIRTLRDQLLLLHNQLLYERFKRQQHALRNRRLLRKVIKAAALEEHNAAMKDQLKLQEKDIQMWKVSLQKEQARYNQLQEQRDTMVTKLHSQIRQLQHDREEFYNQSQELQTKLEDCRNMIAELRIELKKANNKVCHTELLLSQVSQKLSNSESVQQQMEFLNRQLLVLGEVNELYLEQLQNKHSDTTKEVEMMKAAYRKELEKNRSHVLQQTQRLDTSQKRILELESHLAKKDHLLLEQKKYLEDVKLQARGQLQAAESRYEAQKRITQVFELEILDLYGRLEKDGLLKKLEEEKAEAAEAAEERLDCCNDGCSDSMVGHNEEASGHNGETKTPRPSSARGSSGSRGGGGSSSSSSELSTPEKPPHQRAGPFSSRWETTMGEASASIPTTVGSLPSSKSFLGMKARELFRNKSESQCDEDGMTSSLSESLKTELGKDLGVEAKIPLNLDGPHPSPPTPDSVGQLHIMDYNETHHEHS
Question: How did the binding (GFP-WIPI3 (human) [8]) turn out when B1 was run?
Answer: binds

B2: GFP-WIPI4 (protein, UniProt Q9Y484 1-360)
chain: T1 sequence
Question: Which binding (myc-ATG2A) does the source give for B2 here?
Answer: binds

Source: publication PMC5460038
